The list shows a part of the results.
Assays:
HSkMC = human skeletal muscle cells; assay: cytotoxicity call (relative viability < 0.9); settings: 10 µM
S. aureus RN4220 = assay: growth inhibition call (relative growth <= 0.2); settings: 50 µM

| SMILES | cytotoxicity call (HSkMC) | growth inhibition call (S. aureus RN4220) |
| --- | --- | --- |
| COc1ccc(NC(=O)N(C)C[C@H]2Oc3ccc(NC(=O)Nc4cccc5ccccc45)cc3C(=O)N([C@@H](C)CO)C[C@@H]2C)cc1 | inactive | inactive |
| COc1ccc(-c2coc3cc(O)ccc3c2=O)c(OC)c1OC | inactive | inactive |
| C[C@H](CO)N1C[C@H](C)[C@@H](CN(C)S(C)(=O)=O)Oc2ccc(NC(=O)NC3CCCCC3)cc2CC1=O | inactive | inactive |
| CC(C)(C)OC(=O)CC[C@]12N=C(c3ccc(OCCCO)cc3)O[C@H]1c1ccccc1CN(C(=O)c1ccccc1)C2=O | inactive | inactive |
| C[C@H]1CN([C@@H](C)CO)C(=O)c2c(c3ccccc3n2C)-c2ccccc2CO[C@H]1CN(C)CC1CCCCC1 | inactive | inactive |
| Cc1noc(C)c1NC(=O)Nc1ccc2c(c1)C(=O)N([C@H](C)CO)C[C@@H](C)[C@H](CN(C)Cc1ccc(C(F)(F)F)cc1)OCCCC[C@@H](C)O2 | inactive | inactive |
| O=C1C[C@]2(c3ccc([N+](=O)[O-])cc3)C(=O)N(CC(F)(F)F)c3cc(CO)ccc3[C@H]2N1CC12CC3CC(CC(C3)C1)C2 | inactive | inactive |
| COc1ccc(S(=O)(=O)N(C)C[C@H]2OCCCC[C@@H](C)Oc3ccc(NC(=O)C4CCCCC4)cc3C(=O)N([C@H](C)CO)C[C@H]2C)cc1 | inactive | inactive |
| COc1ccc(S(=O)(=O)Nc2ccc3c(c2)C(=O)N([C@H](C)CO)C[C@@H](C)[C@@H](CN(C)S(=O)(=O)c2ccc(Cl)cc2)OCCCC[C@H](C)O3)cc1 | inactive | inactive |
| C[C@@H]1CN([C@H](C)CO)C(=O)c2cccc(NC(=O)C3CCCCC3)c2O[C@H]1CN(C)Cc1ccc(C(=O)Nc2ccccc2N)cc1 | inactive | inactive |
| COc1ccc(S(=O)(=O)N(C)C[C@@H]2Oc3ncc(-c4ccncc4)cc3C(=O)N([C@H](C)CO)C[C@H]2C)cc1 | inactive | inactive |
| O=C(C1CCC1)N1CCOCC1 | inactive | inactive |
| C[C@H]1CN([C@@H](C)CO)C(=O)c2cc(C#CC3(O)CCCC3)cnc2O[C@@H]1CN(C)S(=O)(=O)c1ccccc1 | inactive | inactive |
| O=C(N[C@H](c1ccc(F)cc1)c1ccc2ccccc2n1)C1CCN(Cc2ccc3ccccc3n2)CC1 | inactive | inactive |
| Cc1noc(C)c1NC(=O)N[C@@H]1C=C[C@@H](CC(=O)N2CCN(C)CC2)O[C@@H]1CO | inactive | inactive |
| C[C@@H]1CCCCO[C@@H](CN(C)C(=O)C2CCCCC2)[C@@H](C)CN([C@@H](C)CO)C(=O)c2cc(NC(=O)c3ccccc3)ccc2O1 | inactive | inactive |
| CC(=O)OCC(=O)NCCCOc1cccc(CN2CCCCC2)c1.Cl | inactive | inactive |
| C[C@H](CO)N1C[C@H](C)[C@H](CN(C)Cc2ccc(Oc3ccccc3)cc2)Oc2ccc(NS(=O)(=O)c3ccccc3)cc2CC1=O | inactive | inactive |
| COc1ccccc1NC(=O)N(C)C[C@@H]1Oc2ncc(C#CCN(C)C)cc2C(=O)N([C@H](C)CO)C[C@@H]1C | inactive | inactive |
| C[C@@H]1CN([C@@H](C)CO)C(=O)c2cccc(NS(C)(=O)=O)c2O[C@@H]1CN(C)Cc1ccc(C(F)(F)F)cc1 | inactive | inactive |
| CC12CCC3c4ccc(O)cc4CCC3C1CCC2=O (stereo not drawn) | inactive | inactive |
| O=C(/C=C/c1ccc(O)c(O)c1)O[C@@H]1C[C@](OC(=O)/C=C/c2ccc(O)c(O)c2)(C(=O)O)C[C@@H](O)[C@H]1O | inactive | inactive |
| O=C(O)Cc1ccc(CO)cc1 | inactive | inactive |
| OCC1OC(OCCc2ccc(O)cc2)C(O)C(O)C1O (stereo not drawn) | inactive | inactive |
| C[C@H](CO)N1C[C@H](C)[C@H](CN(C)S(=O)(=O)c2cccs2)Oc2ccc(NC(=O)Cn3cnnn3)cc2C1=O | inactive | inactive |
| COc1ccc(C#Cc2cnc3c(c2)C(=O)N([C@H](C)CO)C[C@@H](C)[C@@H](CN(C)C(=O)CN(C)C)O3)cc1 | inactive | inactive |
| C[C@@H]1CCCCO[C@@H](CN(C)S(=O)(=O)c2ccccc2)[C@H](C)CN([C@H](C)CO)C(=O)c2cc(NC(=O)Nc3cccc4ccccc34)ccc2O1 | inactive | inactive |
| COc1cccc(S(=O)(=O)N(C)C[C@@H]2Oc3cc(C4=CCCC4)ccc3S(=O)(=O)N([C@H](C)CO)C[C@@H]2C)c1 | inactive | inactive |
| C[C@@H]1CCCCO[C@@H](CN(C)S(=O)(=O)c2ccc(F)cc2)[C@H](C)CN([C@@H](C)CO)C(=O)c2cc(NC(=O)Cc3ccccc3)ccc2O1 | inactive | inactive |

— the antibiotic and cytotoxicity screens of Wong et al. (2023)
